# The supplement of paper PMC8728848
# Some of the results follow.
# B1: DrGal3 (Danio rerio) (protein)
# chain: MDLSDALDAPPQQNNQQAGGPVWPGQPANPVWPGQPANPTWPGQPNQPAWPGQPNQQWPGQPGQPTAPGWPGPAPQTGPYGAPGQAPQVLTVPLDFPLQNGAYNKMLITINGEVKPNAKQFTVNLRRGNDIAFHINPRFSEGGKPVIVRNSMIGNNWGREERELPSFPFVPGKPFEMKILITDTEYKVAVNKSHLLEFKHRVFELNQITGLSIYNDVTLSTVNVETLQ
# What was measured:
# Experiment in all cases: glycan array binding signal (z-score within array); higher = stronger binding
# Details in all cases: glycan notation: IUPAC condensed, linker removed
# [1] = target: GalNAc(b1-4)GlcNAc
# Method in brief: (§1)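 The Consortium for Functional Glycomics database supplied 3228 glycan arrays, of which those lacking an available protein sequence were dropped. The binding signal, a within-array Z-score, was averaged across arrays of the same protein sequence and across linkers. Negative scores can be read as non-binding.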
# [2] = target: GalNAc(b1-4)GlcNAc(b1-2)Man
# Method in brief: as §1
# [3] = target: GalNAc(b1-4)GlcNAc(b1-2)Man(a1-3)[GalNAc(b1-4)GlcNAc(b1-2)Man(a1-6)]Man(b1-4)GlcNAc(b1-4)GlcNAc
# Method in brief: as §1
# [4] = target: GalNAc(b1-4)GlcNAc(b1-3)GalNAc(b1-4)GlcNAc
# Method in brief: as §1
# [5] = target: GalNAc(b1-4)GlcNAc6S
# Method in brief: as §1
# [6] = target: GalNAc(b1-6)GalNAc
# Method in brief: as §1
# [7] = target: GalNAc3S(b1-4)GlcNAc
# Method in brief: as §1
# [8] = target: GalNAc3S(b1-4)GlcNAc3S
# Method in brief: as §1
# [9] = target: GalNAc3S(b1-4)[Fuc(a1-3)]GlcNAc
# Method in brief: as §1
# [10] = target: GalNAc4S6S(b1-4)GlcNAc
# Method in brief: as §1
# [11] = target: GalNAc6S(b1-4)GlcNAc
# Method in brief: as §1
# [12] = target: Glc(a1-4)Glc
# Method in brief: as §1
# [13] = target: Glc(a1-4)Glc(a1-4)Glc(a1-4)Glc
# Method in brief: as §1
# [14] = target: Glc(a1-6)Glc(a1-6)Glc
# Method in brief: as §1
# [15] = target: Glc(a1-6)Glc(a1-6)Glc(a1-6)Glc
# Method in brief: as §1
# [16] = target: Glc(b1-4)Glc
# Method in brief: as §1
# [17] = target: Glc(b1-6)Glc
# Method in brief: as §1
# [18] = target: GlcA(b1-3)Gal
# Method in brief: as §1
# [19] = target: GlcA(b1-3)GlcNAc
# Method in brief: as §1
# [20] = target: GlcA(b1-6)Gal
# Method in brief: as §1
# [21] = target: GlcA3S(b1-3)Gal(b1-4)GlcNAc(b1-2)Man
# Method in brief: as §1
# [22] = target: GlcA3S(b1-3)Gal(b1-4)GlcNAc(b1-3)Gal(b1-4)Glc
# Method in brief: as §1
# [23] = target: GlcNAc(a1-3)Gal(b1-4)GlcNAc
# Method in brief: as §1
# [24] = target: GlcNAc(a1-4)Gal(b1-3)GlcNAc
# Method in brief: as §1
# [25] = target: GlcNAc(a1-4)Gal(b1-4)GalNAc
# Method in brief: as §1
# [26] = target: GlcNAc(a1-4)Gal(b1-4)GlcNAc
# Method in brief: as §1
# [27] = target: GlcNAc(a1-4)Gal(b1-4)GlcNAc(b1-3)Gal(b1-4)Glc
# Method in brief: as §1
# [28] = target: GlcNAc(a1-4)Gal(b1-4)GlcNAc(b1-3)Gal(b1-4)GlcNAc
# Method in brief: as §1
# [29] = target: GlcNAc(a1-4)Gal(b1-4)GlcNAc(b1-3)Gal(b1-4)GlcNAc(b1-3)Gal(b1-4)GlcNAc
# Method in brief: as §1
# [30] = target: GlcNAc(a1-4)Gal(b1-4)GlcNAc(b1-3)Gal(b1-4)[Fuc(a1-3)]GlcNAc(b1-3)Gal(b1-4)[Fuc(a1-3)]GlcNAc
# Method in brief: as §1
# [31] = target: GlcNAc(a1-6)Gal(b1-4)GlcNAc
# Method in brief: as §1
# [32] = target: GlcNAc(b1-2)Gal(b1-3)GalNAc
# Method in brief: as §1
# [33] = target: GlcNAc(b1-2)Man(a1-3)[GlcNAc(b1-2)Man(a1-6)]Man(b1-4)GlcNAc(b1-4)GlcNAc
# Method in brief: as §1
# [34] = target: GlcNAc(b1-2)Man(a1-3)[GlcNAc(b1-2)Man(a1-6)]Man(b1-4)GlcNAc(b1-4)[Fuc(a1-6)]GlcNAc
# Method in brief: as §1
# [35] = target: GlcNAc(b1-2)Man(a1-3)[GlcNAc(b1-4)][GlcNAc(b1-2)Man(a1-6)]Man(b1-4)GlcNAc(b1-4)GlcNAc
# Method in brief: as §1
# [36] = target: GlcNAc(b1-2)Man(a1-3)[GlcNAc(b1-4)][GlcNAc(b1-2)Man(a1-6)]Man(b1-4)GlcNAc(b1-4)[Fuc(a1-6)]GlcNAc
# Method in brief: as §1
# [37] = target: GlcNAc(b1-2)[GlcNAc(b1-4)]Man(a1-3)[GlcNAc(b1-2)Man(a1-6)]Man(b1-4)GlcNAc(b1-4)GlcNAc
# Method in brief: as §1
# [38] = target: GlcNAc(b1-2)[GlcNAc(b1-4)]Man(a1-3)[GlcNAc(b1-4)][GlcNAc(b1-2)Man(a1-6)]Man(b1-4)GlcNAc(b1-4)GlcNAc
# Method in brief: as §1
# [39] = target: GlcNAc(b1-2)[GlcNAc(b1-4)]Man(a1-3)[GlcNAc(b1-4)][GlcNAc(b1-2)[GlcNAc(b1-6)]Man(a1-6)]Man(b1-4)GlcNAc(b1-4)GlcNAc
# Method in brief: as §1
# [40] = target: GlcNAc(b1-2)[GlcNAc(b1-4)]Man(a1-3)[GlcNAc(b1-4)][GlcNAc(b1-2)[GlcNAc(b1-6)]Man(a1-6)]Man(b1-4)GlcNAc(b1-4)[Fuc(a1-6)]GlcNAc
# Method in brief: as §1
# [41] = target: GlcNAc(b1-2)[GlcNAc(b1-6)]Man(a1-6)[GlcNAc(b1-2)Man(a1-3)]Man(b1-4)GlcNAc(b1-4)GlcNAc
# Method in brief: as §1
# [42] = target: GlcNAc(b1-2)[GlcNAc(b1-6)]Man(a1-6)[GlcNAc(b1-2)Man(a1-3)]Man(b1-4)GlcNAc(b1-4)[Fuc(a1-6)]GlcNAc
# Method in brief: as §1
# [43] = target: GlcNAc(b1-2)[GlcNAc(b1-6)]Man(a1-6)[GlcNAc(b1-4)][GlcNAc(b1-2)Man(a1-3)]Man(b1-4)GlcNAc(b1-4)GlcNAc
# Method in brief: as §1
# [44] = target: GlcNAc(b1-3)Fuc
# Method in brief: as §1
# [45] = target: GlcNAc(b1-3)Gal
# Method in brief: as §1
binder,measurement,setting,value
B1,glycan array binding signal (z-score),[1],0.313
same,glycan array binding signal (z-score),[2],-0.234
same,glycan array binding signal (z-score),[3],-0.239
same,glycan array binding signal (z-score),[4],-0.231
same,glycan array binding signal (z-score),[5],-0.236
same,glycan array binding signal (z-score),[6],-0.246
same,glycan array binding signal (z-score),[7],-0.263
same,glycan array binding signal (z-score),[8],-0.255
same,glycan array binding signal (z-score),[9],-0.278
same,glycan array binding signal (z-score),[10],-0.226
same,glycan array binding signal (z-score),[11],-0.282
same,glycan array binding signal (z-score),[12],-0.262
same,glycan array binding signal (z-score),[13],-0.281
same,glycan array binding signal (z-score),[14],-0.205
same,glycan array binding signal (z-score),[15],-0.264
same,glycan array binding signal (z-score),[16],-0.253
same,glycan array binding signal (z-score),[17],-0.225
same,glycan array binding signal (z-score),[18],-0.244
same,glycan array binding signal (z-score),[19],-0.23
same,glycan array binding signal (z-score),[20],-0.192
same,glycan array binding signal (z-score),[21],-0.207
same,glycan array binding signal (z-score),[22],-0.163
same,glycan array binding signal (z-score),[23],-0.23
same,glycan array binding signal (z-score),[24],-0.23
same,glycan array binding signal (z-score),[25],-0.206
same,glycan array binding signal (z-score),[26],-0.256
same,glycan array binding signal (z-score),[27],-0.13
same,glycan array binding signal (z-score),[28],0.329
same,glycan array binding signal (z-score),[29],1.14
same,glycan array binding signal (z-score),[30],-0.171
same,glycan array binding signal (z-score),[31],-0.297
same,glycan array binding signal (z-score),[32],-0.245
same,glycan array binding signal (z-score),[33],-0.228
same,glycan array binding signal (z-score),[34],-0.229
same,glycan array binding signal (z-score),[35],-0.235
same,glycan array binding signal (z-score),[36],-0.242
same,glycan array binding signal (z-score),[37],-0.252
same,glycan array binding signal (z-score),[38],-0.292
same,glycan array binding signal (z-score),[39],-0.297
same,glycan array binding signal (z-score),[40],-0.281
same,glycan array binding signal (z-score),[41],-0.285
same,glycan array binding signal (z-score),[42],-0.247
same,glycan array binding signal (z-score),[43],-0.243
same,glycan array binding signal (z-score),[44],-0.203
same,glycan array binding signal (z-score),[45],-0.181
